Test results as given in publication PMC4336329 (PLoS ONE, 2015).
The campaign covered roughly 310,000 compounds. About 14,000 (4.5%) showed an effect of 50% or more. Effects have a minus sign here. The list shows a part of the results.

Each molecule was assayed against human ether-à-go-go-related gene (hERG) potassium channel (human, UniProt Q12809) (assay: primary screen, population patch clamp on CHO cells stably expressing hERG).
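Note: peak tail current of the secondary pulse compared with the same well before compound.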

human ether-à-go-go-related gene (hERG) potassium channel, sequence (Q12809 whole entry, looked up): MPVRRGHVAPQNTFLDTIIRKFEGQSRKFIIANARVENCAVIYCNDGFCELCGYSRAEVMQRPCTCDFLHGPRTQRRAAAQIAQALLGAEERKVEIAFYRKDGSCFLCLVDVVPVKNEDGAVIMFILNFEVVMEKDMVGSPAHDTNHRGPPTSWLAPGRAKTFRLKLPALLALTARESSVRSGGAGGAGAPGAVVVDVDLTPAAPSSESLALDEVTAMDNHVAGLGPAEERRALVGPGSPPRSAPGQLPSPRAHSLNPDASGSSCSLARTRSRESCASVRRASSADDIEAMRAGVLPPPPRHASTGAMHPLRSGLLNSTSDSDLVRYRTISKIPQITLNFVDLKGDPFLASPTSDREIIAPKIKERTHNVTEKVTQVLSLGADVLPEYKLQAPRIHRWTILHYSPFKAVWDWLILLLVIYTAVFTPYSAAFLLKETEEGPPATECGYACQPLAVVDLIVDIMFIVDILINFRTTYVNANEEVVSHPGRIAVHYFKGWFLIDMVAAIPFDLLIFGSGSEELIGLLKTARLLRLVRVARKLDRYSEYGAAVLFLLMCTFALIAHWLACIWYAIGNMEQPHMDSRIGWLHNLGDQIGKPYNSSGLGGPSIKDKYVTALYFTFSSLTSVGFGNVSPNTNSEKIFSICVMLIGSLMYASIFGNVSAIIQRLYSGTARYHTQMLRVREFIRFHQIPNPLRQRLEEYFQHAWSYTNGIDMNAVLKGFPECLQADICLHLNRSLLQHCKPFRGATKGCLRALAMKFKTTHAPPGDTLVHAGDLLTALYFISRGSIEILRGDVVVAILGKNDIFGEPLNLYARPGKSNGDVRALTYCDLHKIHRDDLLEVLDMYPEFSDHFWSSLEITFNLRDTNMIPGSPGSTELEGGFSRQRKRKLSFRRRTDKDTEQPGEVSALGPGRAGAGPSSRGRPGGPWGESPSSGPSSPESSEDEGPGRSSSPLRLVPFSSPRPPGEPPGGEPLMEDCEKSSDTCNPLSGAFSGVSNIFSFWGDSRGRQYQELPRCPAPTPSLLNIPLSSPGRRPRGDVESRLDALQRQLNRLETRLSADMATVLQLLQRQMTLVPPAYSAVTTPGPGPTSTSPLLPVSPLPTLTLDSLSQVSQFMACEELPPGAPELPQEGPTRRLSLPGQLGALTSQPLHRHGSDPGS

Compound | hERG current change (%, negative = inhibition) at 10uM [%]
CC(=O)C[C@H]1c2ccccc2S(=O)(=O)N1C1CCCC1 | 14.2
O=c1c2[nH]c3ccc(F)cc3c2ncn1CCC1=CCCCC1 | 12.5
CC(=O)NC1C(O)OC(CO)C(O)C1O (centres unmarked) | 9.32
O=S(=O)(NCc1cccs1)c1cccc(S(=O)(=O)N2CCCCC2)c1 | -29.6
CCN(C/C=C/c1ccccc1OC)Cc1ccccc1 | -33.4
COc1ccc(C(=O)NCCCN2CCOCC2)cc1 | -1.82
O=C(Nc1ccc(F)cc1)C1(S(=O)(=O)c2ccc(Cl)cc2)CC1 | -46.9
CC1CCCC(C)N1CC(O)COCc1ccccc1F.Cl (centres unmarked) | 13.2
CCOC(=O)C1CCN(C(=O)CCc2nc3ccccc3[nH]2)CC1 | -9.59
CCOC1=NN(c2ncc(C(F)(F)F)cc2Cl)C(=O)/C1=C/N(C)C | 12.5
CCN(CC)S(=O)(=O)c1ccc(C)c(NC(=O)CNc2cccc(S(=O)(=O)N3CCOCC3)c2)c1 | -17.7
CCNC(=O)CSc1nnc(-c2cccs2)o1 | 7.42
CCCCNC(=S)Nc1ccc2nc(N3CCN(CC)CC3)cc(C)c2c1 | -44.6
O=C(Nc1ccc(N2CCCCC2)cc1)c1cc(S(=O)(=O)N2CCOCC2)ccc1F | -9.76
C/C(CC(=O)Nc1ccc2c(c1)OCCO2)=N\NC(=O)Cc1ccc(Cl)cc1 | 11.2
Cc1sc(NC(=O)c2cccnc2)nc1-c1ccccc1 | 32.4
Cc1ccsc1C(=O)Nc1cc(C(C)(C)C)nn1-c1ccccc1 | -1.14
Cc1nn(-c2ccccc2)c(Cl)c1C(=O)NCc1cccs1 | -19.4
CCOc1ccccc1N(CC(=O)Nc1ccc(OC)c(OC)c1)S(=O)(=O)c1ccccc1 | 7.36
CC(=O)NC1=NN(C(C)=O)C(C)(c2cccnc2)S1 (centres unmarked) | 30.5
CCCc1nnc(SCC(=O)Nc2nnc(CC)s2)n1CC1CCCO1 (centres unmarked) | 2.42
COc1ccc(NC(=O)CSc2nnc(Cc3cccs3)n2C)cc1 | -0.827
COc1cc(N)c(Cl)cc1C(=O)OCC(=O)NC1CCCC1 | 15.3

Compound | hERG current change (%, negative = inhibition) at 10uM [%]
CC1CCN(C(=O)CSc2ccc(-c3ccc4c(c3)OCCO4)nn2)CC1 | 1.43
CC(=O)NC(C(=O)OCC(=O)N(c1ccccc1)c1ccccc1)C(C)C (centres unmarked) | 8.03
CC1=C(C(=O)Nc2ccccc2C(=O)NC2CCCCC2C)SCCO1 (centres unmarked) | -7.39
Cc1ccc(S(=O)(=O)N2CCC(C(=O)NCc3ccccc3CN3CCCC3)CC2)cc1C | -68.7
COc1cc(/C=C2\SC(=O)N(c3ccc(O)cc3)C2=O)cc(OC)c1OC | -6
O=C1c2cccnc2C(=O)N1CNc1ccc(Cl)cc1 | 51.4
CCCn1nnnc1SCC(=O)NCc1ccc2c(c1)OCO2 | 5.52
COc1cc(C(=O)NCCNC(=O)c2cnccn2)cc(OC)c1OC | 2.14
Cc1nc2c(-c3ccccc3)c(C)nn2c(SCC(N)=O)c1Cc1ccccc1 | 8
Cn1c(C(=O)N2CCC(C(N)=O)CC2)cc2c(=O)n(C)c3ccccc3c21 | 12.9
CCC(CC)c1nnc(NC(=O)c2c(-c3ccccc3)noc2C)s1 | -9.78
COc1cc(C(=O)N2CCN(c3cccc(C)c3C)CC2)ccc1OCC(=O)N1CCOCC1 | -31.3
Cc1ccsc1C(=O)NCCc1ccco1 | 6.59
COc1ccccc1N1CCN(C(=O)c2cc3c(=O)n(C)c4ccccc4c3n2C)CC1 | -17.3
Cc1ccc(S(=O)(=O)N2CCOCC2)cc1N/N=C(\C#N)c1nc2ccccc2[nH]1 | 12.7
COc1ccc(CCNC(=O)CCOc2ccc(C(C)(C)C)cc2)cc1OC | 5
CCCCn1nc2cc(C(=O)NCc3ccc(C(F)(F)F)cc3C(F)(F)F)ccc2c1OCC | -6.44
N#CCCS(=O)(=O)c1ccc(N)cc1 | 5.48
O=C(C(=O)N1CCOCC1)c1cn(Cc2ccc(F)cc2)c2ccccc12 | -32
CCN1CCc2[nH]c3ccccc3c2C1 | -3.26
CSC1=NCCN1C(=O)C12CC3CC(CC(C3)C1)C2 | -5.7
COc1ccc(F)cc1S(=O)(=O)Nc1ccncc1 | 18.4
COc1ccc(OCCSc2ncccn2)cc1 | -2.08

Compound | hERG current change (%, negative = inhibition) at 10uM [%]
CCOC(=O)c1sc2nc(CC(=O)OC)nc(NCc3ccc(F)cc3)c2c1C | -6.21
C=CCn1c(O)c(C(C)=Nc2ccc3c(c2)CCC3)c(=O)[nH]c1=O | -2.18
O=C(NCc1cccnc1)c1ccc(NS(=O)(=O)c2ccc(F)cc2)cc1 | 8.41
Cc1c(NC(=O)/C(C#N)=C/c2ccccc2)c(=O)n(-c2ccccc2)n1C | -0.445
Cc1cc(C(=O)NNC(=O)CCCOc2ccccc2)c(C)o1 | 0.675
COC(=O)c1[nH]c2ccc(Cl)cc2c1NC(=O)CCN1CCN(C2CCCCC2)CC1 | -80
CCN1C(=O)C(CC(=O)Nc2ccc(OC)cc2)N(Cc2ccc3c(c2)OCO3)C1=S (centres unmarked) | -17
Cc1nc(NC(=O)c2ccccc2)sc1C1(C)CC(c2ccccc2F)=NO1 (centres unmarked) | 3.58
CN(C)c1ccc(C(=O)C(=O)c2ccccc2)cc1 | 5.8
O=C1CCc2cc(S(=O)(=O)NC(C(=O)NCc3cccnc3)c3ccccc3)ccc2N1 (centres unmarked) | 16.2
Cc1ccccc1C(=O)NC(=S)NCc1ccccc1 | 6.13
Cc1ccc2[nH]c3c(c2c1)CN(C(=O)CN1CCCc2ccccc21)CC3 | 0.0121
CC(=O)c1cc(-c2ccccc2)[nH]c1N1CCOCC1 | 9.55
O=C(Nc1ccc(NC(=O)c2ccccc2F)cc1)c1cccs1 | 34.1
CC(=O)Nc1cccc(/C(C)=N/NC(=O)c2ccc3c(c2)OCO3)c1 | 7.58
Cn1c(NC(=O)c2ccccc2C(F)(F)F)cc(=O)n(C)c1=O | -33
CC(=O)Nc1nc(-c2ccccc2)nc(-c2ccccc2OC(C)=O)n1 | -30.1
CC1(C)CC(=O)C(CC(=O)NC2CCCc3ccccc32)C(=O)C1 (centres unmarked) | 15.1
Clc1ccc(SCc2nc3ccccc3[nH]2)cc1 | -11.2
O=C(COc1ccccc1C(=O)O)Nc1ccc(SC(F)F)cc1 | 19.8
CCCCc1ccc(/C=C2\C(=O)c3ccccc3C(O)=C2C(=O)OCC)cc1 | 15.8
Cc1ccc(CNC(=O)c2cc3c(=O)n(C)c4ccccc4c3n2C)cc1 | 11.6
CSc1ccc(/C=C2/C(=N)N3N=C(CC(=O)N4CCCC4)SC3=NC2=O)cc1 | 10.8

Compound | hERG current change (%, negative = inhibition) at 10uM [%]
O=C(CN(CC1CCCO1)C(=O)CNS(=O)(=O)c1ccc(Cl)cc1)NCCc1ccccc1 (centres unmarked) | -20.8
CCc1cc[n+](-c2nc3ccccc3nc2C(=C=[N-])C#N)cc1 | 2.09
CCn1c(-c2ccc([N+](=O)[O-])cc2)n[nH]c1=S | 9.07
Cc1cc(NC(=O)CSc2nc(-c3ccccc3)cs2)no1 | 20.5
CN(Cc1ccccc1)C(=O)c1ccc2c(c1)OCO2 | -2.29
Cn1cnnc1SCC(=O)N1N=C(c2ccc(Cl)cc2)CC1c1ccco1 (centres unmarked) | -32.5
COc1ccccc1CN(C)C(=O)CN1CCN(S(=O)(=O)c2ccc3c(c2)OCCCO3)CC1 | -9.15
COC(=O)CN(C(=S)Nc1ccc(F)cc1)C1CC(=O)N(c2ccc(OC)cc2)C1=O (centres unmarked) | 2
COc1cc(/C(C)=N/N2CCN(c3ccccc3OC)CC2)ccc1O | -9.07
CC(C)c1ccc(NC2CCCN(C(=O)c3ccc(Cn4cnnn4)cc3)C2)cc1 (centres unmarked) | -4.24
COC(=O)CSc1nnc(-c2ccc(NS(=O)(=O)c3ccccc3)cc2)o1 | 9.9
Cc1ccc(CSCC(=O)N2CCN(c3ccccc3)CC2)cc1 | -9.06
Nc1cc(=O)n(Cc2ccccc2)c(=O)n1-c1ccc(Cl)cc1 | -1.08
CC(OC(=O)/C=C/c1cccc(Cl)c1)C(=O)NC1CCCCC1C (centres unmarked) | 25.9
COc1cc(C(=O)NNC(=O)CNC(=O)c2ccc(Br)o2)cc(OC)c1OC | 18.7
COc1ccc(N2CCN(C(=O)c3ccc(Cn4c(=S)[nH]c5ccc(N6CCOCC6)cc5c4=O)cc3)CC2)cc1 | 6.17
Cn1cc(S(=O)(=O)N2CCCC2)cc1C(=O)NCc1ccccc1 | -2.54
Cc1cc(=O)oc2c1c(C)nn2-c1nn[nH]n1 | -7.13
CC(C)(CO)NS(=O)(=O)c1ccc2c(c1)C(=O)c1cc(S(=O)(=O)NC(C)(C)CO)ccc1-2 | 16.2
CN1CCN2c3ccccc3CC3(C(=O)N(C)C(=O)N(C)C3=O)C2C1 (centres unmarked) | 15.7
